Data published in PMC3897721, “Structure of Utp21 Tandem WD Domain Provides Insight into the Organization of the UTPB Complex Involved in Ribosome Synthesis” (PLoS ONE, 2014).
These are yes or no findings as the source states them, for the method shown. Some entries that bind do so weakly or less than the wild type. Where a sequence is shown, tags or fusion partners need not be part of it.

T1: GST-Utp21 1–684 (co-expressed with a Utp18 fragment) (yeast (S. cerevisiae)) (UniProt Q06078)
T1 sequence: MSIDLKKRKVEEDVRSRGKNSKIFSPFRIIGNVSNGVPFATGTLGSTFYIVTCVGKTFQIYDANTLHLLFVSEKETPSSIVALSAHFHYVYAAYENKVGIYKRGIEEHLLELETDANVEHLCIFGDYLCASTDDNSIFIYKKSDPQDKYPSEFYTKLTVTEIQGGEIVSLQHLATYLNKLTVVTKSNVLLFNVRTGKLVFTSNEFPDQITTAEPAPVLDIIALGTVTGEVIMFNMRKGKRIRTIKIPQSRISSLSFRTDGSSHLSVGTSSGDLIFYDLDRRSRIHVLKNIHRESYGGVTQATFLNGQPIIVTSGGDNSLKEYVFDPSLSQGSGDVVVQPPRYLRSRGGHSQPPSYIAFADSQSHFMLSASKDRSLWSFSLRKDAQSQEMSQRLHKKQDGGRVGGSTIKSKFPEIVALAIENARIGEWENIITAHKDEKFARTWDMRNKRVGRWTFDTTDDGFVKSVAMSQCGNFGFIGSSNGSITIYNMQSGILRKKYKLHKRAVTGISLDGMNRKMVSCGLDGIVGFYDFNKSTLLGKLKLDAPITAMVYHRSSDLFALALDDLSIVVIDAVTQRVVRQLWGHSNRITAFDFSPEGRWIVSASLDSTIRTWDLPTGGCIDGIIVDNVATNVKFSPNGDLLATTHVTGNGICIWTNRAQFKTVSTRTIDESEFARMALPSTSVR

T2: Utp21 (full-length, two-hybrid fusion) (yeast (S. cerevisiae)) (UniProt Q06078)
T2 sequence: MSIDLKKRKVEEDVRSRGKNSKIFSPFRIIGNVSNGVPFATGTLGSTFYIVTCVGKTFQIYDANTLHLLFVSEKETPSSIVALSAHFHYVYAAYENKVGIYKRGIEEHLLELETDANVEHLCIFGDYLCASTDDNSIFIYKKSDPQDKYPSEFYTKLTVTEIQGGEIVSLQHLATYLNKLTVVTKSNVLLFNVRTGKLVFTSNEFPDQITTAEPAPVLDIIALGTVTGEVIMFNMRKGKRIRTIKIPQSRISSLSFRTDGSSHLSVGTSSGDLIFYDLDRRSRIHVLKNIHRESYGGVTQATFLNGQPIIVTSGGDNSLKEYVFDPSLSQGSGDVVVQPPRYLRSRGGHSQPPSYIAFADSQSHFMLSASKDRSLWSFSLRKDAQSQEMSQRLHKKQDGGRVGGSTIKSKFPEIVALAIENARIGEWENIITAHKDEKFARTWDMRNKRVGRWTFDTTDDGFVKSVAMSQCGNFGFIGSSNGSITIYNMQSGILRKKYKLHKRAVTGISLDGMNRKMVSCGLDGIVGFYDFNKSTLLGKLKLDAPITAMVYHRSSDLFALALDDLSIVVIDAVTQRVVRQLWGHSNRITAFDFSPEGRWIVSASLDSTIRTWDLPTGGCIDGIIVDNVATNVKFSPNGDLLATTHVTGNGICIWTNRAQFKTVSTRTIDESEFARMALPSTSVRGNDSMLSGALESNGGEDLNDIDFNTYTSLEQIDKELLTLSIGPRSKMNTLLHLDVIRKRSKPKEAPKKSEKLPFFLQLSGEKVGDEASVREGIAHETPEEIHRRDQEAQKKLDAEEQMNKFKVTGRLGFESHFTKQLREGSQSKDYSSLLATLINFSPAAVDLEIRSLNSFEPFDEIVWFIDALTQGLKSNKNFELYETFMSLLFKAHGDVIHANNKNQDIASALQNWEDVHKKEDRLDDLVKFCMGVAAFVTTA

T3: Utp21 CTD (residues 684–939), two-hybrid fusion (yeast (S. cerevisiae)) (UniProt Q06078)
T3 sequence: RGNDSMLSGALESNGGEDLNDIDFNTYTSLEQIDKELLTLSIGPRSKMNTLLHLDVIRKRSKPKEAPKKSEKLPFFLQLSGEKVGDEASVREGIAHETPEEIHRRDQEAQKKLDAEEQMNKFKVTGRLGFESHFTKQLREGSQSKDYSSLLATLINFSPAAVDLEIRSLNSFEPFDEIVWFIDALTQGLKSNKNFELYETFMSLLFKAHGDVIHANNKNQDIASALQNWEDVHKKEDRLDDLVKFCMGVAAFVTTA

T4: Utp21 tandem WD domain (residues 1–683), two-hybrid fusion (yeast (S. cerevisiae)) (UniProt Q06078)
T4 sequence: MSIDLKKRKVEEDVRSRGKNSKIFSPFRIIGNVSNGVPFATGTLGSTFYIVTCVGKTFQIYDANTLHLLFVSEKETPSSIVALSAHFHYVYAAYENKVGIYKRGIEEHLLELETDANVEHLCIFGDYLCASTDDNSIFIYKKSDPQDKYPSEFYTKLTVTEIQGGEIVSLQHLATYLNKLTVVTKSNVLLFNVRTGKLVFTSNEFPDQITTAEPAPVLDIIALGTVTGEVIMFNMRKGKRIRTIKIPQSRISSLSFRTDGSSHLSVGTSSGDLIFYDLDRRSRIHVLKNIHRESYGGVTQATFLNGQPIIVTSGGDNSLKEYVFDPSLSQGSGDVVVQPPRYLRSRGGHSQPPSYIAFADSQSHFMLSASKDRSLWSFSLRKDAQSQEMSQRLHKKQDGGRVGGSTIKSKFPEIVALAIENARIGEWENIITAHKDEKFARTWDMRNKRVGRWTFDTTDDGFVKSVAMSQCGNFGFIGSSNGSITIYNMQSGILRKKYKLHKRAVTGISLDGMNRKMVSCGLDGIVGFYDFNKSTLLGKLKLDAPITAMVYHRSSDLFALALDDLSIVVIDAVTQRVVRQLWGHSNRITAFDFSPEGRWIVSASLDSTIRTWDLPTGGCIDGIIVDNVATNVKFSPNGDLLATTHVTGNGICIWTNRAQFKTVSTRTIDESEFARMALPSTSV


How the values were obtained:
[1] = target: T1, GST-Utp21 1–684 (co-expressed with a Utp18 fragment) (yeast (S. cerevisiae)); experiment: co-purification (glutathione affinity, then SEC); GST-Utp21 1–684 and a His6-Smt3-Utp18 fragment co-expressed in E. coli BL21(DE3); His6-Smt3 cleaved with Ulp1 in the lysate; Glutathione Sepharose in 25 mM Tris-HCl pH 7.5, 500 mM NaCl; on-bead PreScission cleavage; Superdex 200 in 10 mM Tris-HCl pH 7.5, 200 mM NaCl
[2] = target: T2, Utp21 (full-length, two-hybrid fusion) (yeast (S. cerevisiae)); experiment: two-hybrid; … GAL4 system, genes fused to AD and BD, co-expressed in AH109 cells; SC-Leu-Trp-His (low stringency), with 5 mM 3-AT, and SC-Leu-Trp-His-Ade (high stringency); 30°C, 3 d
[3] = target: T3, Utp21 CTD (residues 684–939), two-hybrid fusion (yeast (S. cerevisiae)); experiment: as above
[4] = target: T4, Utp21 tandem WD domain (residues 1–683), two-hybrid fusion (yeast (S. cerevisiae)); experiment: as above

Row | Binder | binding [1] | binding [2] | other results
1 | His6-Smt3-Utp18 100–190 (domain or fragment, yeast (S. cerevisiae), UniProt P40362 100-190, looked up, Utp18, yeast (S. cerevisiae), residues 100–190; source: expressed from pET28a, purified (HisTrap and Q chromatography); not shown: His6, N-terminal, kept; Smt3, N-terminal, kept) EDTMDVDDEDDSSSDDYSEDSEEAAWIDSDDEKIKVPILVTNKTKKLRTSYNESKINGVHYINRLRSQFEKIYPRPKWVDDESDSELDDEE | binds |  | 
2 | Utp18 isolated WD domain (residues 191–594), two-hybrid fusion (domain or fragment, UniProt P40362 191-594) DDEEEGSNNVINGDINALTKILSTTYNYKDTLSNSKLLPPKKLDIVRLKDANASHPSHSAIQSLSFHPSKPLLLTGGYDKTLRIYHIDGKTNHLVTSLHLVGSPIQTCTFYTSLSNQNQQNIFTAGRRRYMHSWDLSLENLTHSQTAKIEKFSRLYGHESTQRSFENFKVAHLQNSQTNSVHGIVLLQGNNGWINILHSTSGLWLMGCKIEGVITDFCIDYQPISRGKFRTILIAVNAYGEVWEFDLNKNGHVIRRWKDQGGVGITKIQVGGGTTTTCPALQISKIKQNRWLAVGSESGFVNLYDRNNAMTSSTPTPVAALDQLTTTISNLQFSPDGQILCMASRAVKDALRLVHLPSCSVFSNWPTSGTPLGKVTSVAFSPSGGLLAVGNEQGKVRLWKLNHY |  | no binding | 
3 | Utp18 residues 1–100, two-hybrid fusion (domain or fragment, UniProt P40362 1-100) MTMATTAMNVSVPPPDEEEQLLAKFVFGDTTDLQENLAKFNADFIFNEQEMDVEDQEDEGSESDNSEEDEAQNGELDHVNNDQLFFVDDGGNEDSQDKNE |  | no binding | 
4 | Utp18 residues 101–190, two-hybrid fusion (domain or fragment, UniProt P40362 101-190) DTMDVDDEDDSSSDDYSEDSEEAAWIDSDDEKIKVPILVTNKTKKLRTSYNESKINGVHYINRLRSQFEKIYPRPKWVDDESDSELDDEE |  | binds | 

Continued, in another order:

Row | binding [1] | binding [2] | Binder | other results
5 | binds |  | EDTMDVDDEDDSSSDDYSEDSEEAAWIDSDDEKIKVPILV (domain or fragment, yeast (S. cerevisiae), UniProt P40362 100-139, looked up, Utp18, yeast (S. cerevisiae), residues 100–139; source: expressed from pET28a, purified (HisTrap and Q chromatography); not shown: His6, N-terminal, kept; Smt3, N-terminal, kept) [His6-Smt3-Utp18 100–139] | 
6 | binds |  | His6-Smt3-Utp18 139–190 (domain or fragment, yeast (S. cerevisiae), UniProt P40362 139-190, looked up, Utp18, yeast (S. cerevisiae), residues 139–190; source: expressed from pET28a, purified (HisTrap and Q chromatography); not shown: His6, N-terminal, kept; Smt3, N-terminal, kept) VTNKTKKLRTSYNESKINGVHYINRLRSQFEKIYPRPKWVDDESDSELDDEE | 
7 |  | binds | full-length Utp18, two-hybrid fusion (protein, UniProt P40362 1-594) MTMATTAMNVSVPPPDEEEQLLAKFVFGDTTDLQENLAKFNADFIFNEQEMDVEDQEDEGSESDNSEEDEAQNGELDHVNNDQLFFVDDGGNEDSQDKNEDTMDVDDEDDSSSDDYSEDSEEAAWIDSDDEKIKVPILVTNKTKKLRTSYNESKINGVHYINRLRSQFEKIYPRPKWVDDESDSELDDEEDDEEEGSNNVINGDINALTKILSTTYNYKDTLSNSKLLPPKKLDIVRLKDANASHPSHSAIQSLSFHPSKPLLLTGGYDKTLRIYHIDGKTNHLVTSLHLVGSPIQTCTFYTSLSNQNQQNIFTAGRRRYMHSWDLSLENLTHSQTAKIEKFSRLYGHESTQRSFENFKVAHLQNSQTNSVHGIVLLQGNNGWINILHSTSGLWLMGCKIEGVITDFCIDYQPISRGKFRTILIAVNAYGEVWEFDLNKNGHVIRRWKDQGGVGITKIQVGGGTTTTCPALQISKIKQNRWLAVGSESGFVNLYDRNNAMTSSTPTPVAALDQLTTTISNLQFSPDGQILCMASRAVKDALRLVHLPSCSVFSNWPTSGTPLGKVTSVAFSPSGGLLAVGNEQGKVRLWKLNHY | binding [3]: no binding; binding [4]: binds
